Some of the results follow. At the low end of the ranking the order means little.

This assay deals with GST-SBP-SLBP (stem-loop binding protein) (UniProt Q14493). Put plainly: targeted RNA Bind-n-Seq.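 Note: DESeq read counts versus GST-SBP nonspecific binding control pulldown.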 The note with it: RBNS binding buffer: 25 mM Tris pH 7.5, 150 mM KCl, 3 mM MgCl2, 0.1% Tween, 0.5 mg/mL BSA, 1 mM DTT; 27 nM protein, 750 pM RNA pool; temperature not stated; high values mean tight binding.
For the sequence “GGUCACGUCUCAAUCAACUCCUAAGAGGGGGGGAAAACCCCUUUGCCCUCAAUUUCAACAGCUCGCAGUCAAG”, the binding signal (log2 fold change) is -0.372.

In the case of “GGUCACGUCUCAAUCAACUCUUCCUCAGGAGUUUCCUCCUGCAAAUUCAACAGCUCGCAGUCAAG”, the binding signal (log2 fold change) is 0.0607.

As for “GGUCACGUCUCAAUCAACUCAAUUUCCAGGGAAACCCCUGGUAUACUCAACAGCUCGCAGUCAAG”, the binding signal (log2 fold change) is -0.133.

“GGUCACGUCUCAAUCAACUCAUCUCCAGGAGUUUCCUCCUGUUUACUCAACAGCUCGCAGUCAAG”: the binding signal (log2 fold change) was found to be 0.131.

As for “GGUCACGUCUCAAUCAACUCAUCUUCAGGAGUUUACUCCUGCAUUUUCAACAGCUCGCAGUCAAG”, the binding signal (log2 fold change) amounted to 0.11.

As for “GGUCACGUCUCAAUCAACUCAUUCUCCAGGGAAAGCCCUGGCUUUCUCAACAGCUCGCAGUCAAG”, the binding signal (log2 fold change) was 0.0375.

As to “GGUCACGUCUCAAUCAACUCUAUUCCAGGAGUUUCCUCCUGCUUUUUCAACAGCUCGCAGUCAAG”, the binding signal (log2 fold change) is -0.0924.

For “GGUCACGUCUCAAUCAACUCAACUCCCAGGGAAAGCCCUGGUUAUCUCAACAGCUCGCAGUCAAG”, the binding signal (log2 fold change) was -0.195.

On to “GGUCACGUCUCAAUCAACUCAAUCUCCAGGGAAAGCCCUGGCUAUGUCAACAGCUCGCAGUCAAG”, for which the binding signal (log2 fold change) is 0.00123.

For “GGUCACGUCUCAAUCAACUCUUUCUCCAGGGAAACCCCUGGUUAUCUCAACAGCUCGCAGUCAAG”, the binding signal (log2 fold change) turned out to be 0.287.

Regarding “GGUCACGUCUCAAUCAACUCAAUAGAGGGGGGGAAAACCCCUUUGCCCUCAUCGUCAACAGCUCGCAGUCAAG”, the binding signal (log2 fold change) amounted to 0.0194.

On to “GGUCACGUCUCAAUCAACUCAUCGUCAGGAGUUUGCUCCUGCUAUCUCAACAGCUCGCAGUCAAG”, for which the binding signal (log2 fold change) came to 0.163.

Regarding “GGUCACGUCUCAAUCAACUCUAUUCCCAGGGAAAACCCUGGCUAAUUCAACAGCUCGCAGUCAAG”, the binding signal (log2 fold change) is -0.0931.

With “GGUCACGUCUCAAUCAACUCAUUCCCCAGGGAAAUCCCUGGCUUACUCAACAGCUCGCAGUCAAG”, the binding signal (log2 fold change) stood at 0.0381.

Regarding “GGUCACGUCUCAAUCAACUCAACUCCAGGAGUUUUCUCCUGUUAAUUCAACAGCUCGCAGUCAAG”, the binding signal (log2 fold change) is -0.099.

“GGUCACGUCUCAAUCAACUCAAUAGAGGGGGGGAAAACCCCUUUACCCUCCGCAUCAACAGCUCGCAGUCAAG”: the binding signal (log2 fold change) is -0.0145.

As to “GGUCACGUCUCAAUCAACUCAUCCCCAGGAGUUUUCUCCUGCUUACUCAACAGCUCGCAGUCAAG”, the binding signal (log2 fold change) turned out to be 0.175.

As for “GGUCACGUCUCAAUCAACUCAUCUCCCAGGGAAAUCCCUGGUUAUUUCAACAGCUCGCAGUCAAG”, the binding signal (log2 fold change) was determined as 0.034.

For “GGUCACGUCUCAAUCAACUCUUUUCCCAGGGAAAUCCCUGGCUUUUUCAACAGCUCGCAGUCAAG”, the binding signal (log2 fold change) was 0.0975.

Consider “GGUCACGUCUCAAUCAACUCAAGUCCCAGGGAAACCCCUGGUAAAUUCAACAGCUCGCAGUCAAG”, for which the binding signal (log2 fold change) is 0.0355.

Consider “GGUCACGUCUCAAUCAACUCUUUUUCAGGAGUUUUCUCCUGCUUACUCAACAGCUCGCAGUCAAG”, for which the binding signal (log2 fold change) was 0.0398.

For the origin of these results see paper PMC5892938.
